#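 Cells were grown in 96-well plates and exposed to each compound for 48 hours at five concentrations; endpoints were interpolated linearly between bracketing concentrations, or set to the highest concentration if not reached. Here, GI50 denotes the concentration required for 50% inhibition of growth. At the TGI there is no net growth.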
# System: NCI-H322M lung
# Assay: NCI tumour cell line growth inhibition, 48 h
Structure (SMILES),GI50 [µM],TGI [µM]
O=C(c1ccc(Cl)cc1)C1[C@H](c2ccccc2Br)[C@@H](c2ccccc2)NC12C(=O)Nc1ccc(Br)cc12 (stereo partly specified),12.7,> 49
OCCNc1oc(-c2ccccc2)nc1[P+](c1ccccc1)(c1ccccc1)c1ccccc1,14.9,44.4
COc1cc2c3c(n(CCCNCCO)c(=O)c2cc1OC)-c1nc2c(cc1C3=O)OCO2,3.95,17.3

# Source: PubChem BioAssay (NCI)
